Measured values published in PubChem BioAssay AID686978 (National Center for Advancing Translational Sciences (NCATS), 2013).
Among all 420,000 compounds or so, about 64,000 (15%) were called active. The inconclusive results got no clear call from the source; some entries with a clear call stand among them for comparison. Calls come from the whole dose curve; as a rule, active = well fitted inhibition curve with a large enough effect; inconclusive = small, poorly fitted or top-dose-only effect; inactive = flat fitted curve, though single readings scatter. No potency is given beside an inconclusive call; the fits are too rough.

Experiment: qHTS for Inhibitors of human tyrosyl-DNA phosphodiesterase 1 (TDP1): qHTS in cells in absence of CPT; note: nearly all actives have a fitted effect of over 55% in size
Conditions: DT40 Tdp1-/- hTDP1 cells, no CPT, ATP luminescence, 48 h; activity change, negative = growth inhibition: at 46.2 µM (top of the series) unless noted
Method in brief: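 Growth kinetics read by CellTiter-Glo luminescence after ≥48 hr at 37 °C. Cells: DT40 Tdp1-/- stably carrying human TDP1, 400 per well, compound exposure in the absence of CPT (DMSO vehicle).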
% is set by controls: 0 for no effect and ±100 for the full control effect; potency is the fitted concentration of half-maximal effect; tags give direction and shape of the fitted curve.

Structure (SMILES) | Potency | activity change, negative = growth inhibition
CCOC(=O)c1ccc(NC(=O)CN2C(=O)c3cccnc3Oc3ccc(Cl)cc32)cc1 | active: 20.6 µM | 
Cc1[nH]c(=O)[nH]c(=O)c1C1N2CC3(C(C)C)CN1CC(C(C)C)(C2)C3=O (stereo not drawn) |  | inactive: 3.73%
Cc1cc(-c2ccccc2)c2c3c(cn2n1)c(=O)n(C)c(=O)n3C | inconclusive [inhibitor, partial curve] | 
O=C1N(c2ccccc2C(F)(F)F)OC1(Cc1ccccc1)c1ccccc1 (stereo not drawn) | inconclusive [inhibitor, single point] | 
COC(=O)[C@H](C)NS(=O)(=O)C1CC1 |  | inactive: -20.5%
Clc1ccccc1C1=CC(c2ccco2)n2ncnc2N1 (stereo not drawn) | inconclusive [inhibitor, single point] | 
Cc1ccc(NC(=O)COC(=O)C2COc3ccccc3O2)cc1S(=O)(=O)N1CCOCC1 (stereo not drawn) |  | inactive: -21.5%
CN(Cc1ccccc1)c1nc(-c2ccc(F)cc2)cc(C(F)(F)F)n1 | inconclusive [inhibitor, single point] | 
CC1(C2CC(=O)c3c(O)ccc(O)c3C2)OCCO1 (stereo not drawn) | inconclusive [inhibitor, partial curve] | 
COc1ccc2oc(=O)cc(CN3CCOCC3)c2c1 |  | inactive: 11.8%
Nc1ccccc1Nc1cc(-c2cccc(Cl)c2)nn1-c1ccccc1 | inconclusive [inhibitor, single point] | 
COc1ccc(-c2csc(NC(=O)c3ccccc3F)c2C(=O)O)cc1 | inconclusive [inhibitor, single point] | 
Cc1cc(NS(=O)(=O)c2c(C(=O)N3CCOCC3)c(C)n(C)c2C)ccc1Br | inconclusive [inhibitor, single point] | 
CCCCN(C)CCNC(=O)c1cc(-c2cccnc2)nc2ccc(S(=O)(=O)N3CCC(C)CC3)cc12 | active: 14.6 µM | 
CC(=O)Nc1ccc(CN2CCN(CCc3ccccc3)C(CCO)C2)cc1 (stereo not drawn) |  | inactive: -9.04%
CCc1nc2ccc(C(=O)Nc3cccc(OCC(=O)N(C)C)c3)cn2c1N(C)C(=O)c1ccncc1 |  | inactive: -0.273%
CCOc1ccccc1NC(=O)CN1CCC(NC(=O)c2ccccc2)CC1 | inconclusive [inhibitor, single point] | 
COc1cccc(S(=O)(=O)N2CCN(c3nc(-c4cccs4)nc4ccccc34)CC2)c1 | active: 10 µM | 
CN(C(=O)COc1ccccc1)c1nnc(-c2ccncc2)s1 |  | inactive: -10.3%
Cc1c(NC(=O)c2nn3c(c2Br)NC(c2ccccc2)CC3C(F)(F)F)c(=O)n(-c2ccccc2)n1C (stereo not drawn) |  | inactive: -24.1%
COc1ccc(C(=O)N[C@H](C(=O)OCc2cc(=O)oc3cc(C)ccc23)C(C)C)cc1 | inconclusive [inhibitor, single point] | 
Cc1cc([N+](=O)[O-])cc(C)c1OCC(=O)N/N=C/c1ccc(OC(=O)c2ccccc2)cc1 | inconclusive [inhibitor, single point] | 
CCCCNC(=O)C[C@@H]1C[C@@]2(C(=O)OCC)CCC=C2N(Cc2ccco2)C1=O |  | inactive: -10.6%
Cc1ccc(NC(=O)c2nnn(-c3cc(C)cc(C)c3)c2N)cc1 | inconclusive [inhibitor, single point] | 
O=C(CN1CCc2ccccc2C1)NC1CCCC1 |  | inactive: 3.27%

Structure (SMILES) | Potency | activity change, negative = growth inhibition
COc1ccc(CC(=O)OCC(=O)N(C)C2CCS(=O)(=O)C2)cc1OC (stereo not drawn) |  | inactive: -0.0758%
COC(C(=O)NNC(=O)CCc1ccccc1)c1ccccc1 (stereo not drawn) |  | inactive: 11.6%
O=C(NCCNC(=O)c1ccccn1)c1ccc(Cl)cc1 |  | inactive: -7.47%
Cn1c(N)c(C(=O)COC(=O)c2ccc([N+](=O)[O-])o2)c(=O)n(C)c1=O | inconclusive [inhibitor, single point] | 
O=C(Nc1ccc(Cl)cc1Cl)c1cc(S(=O)(=O)N2CCN(c3ccccc3F)CC2)ccc1F | active: 8.2 µM | 
CC1(Cc2ccc(F)cc2)C(=O)Nc2ccc(S(=O)(=O)NC3CCCCC3)cc21 (stereo not drawn) | inconclusive [inhibitor, single point] | 
Cc1ccc(NC(=O)CCSCCc2ccccn2)cc1 | inactive | 
CC(Sc1ccc2c(c1)OCCO2)C(=O)Nc1ncc(Cl)cc1Cl (stereo not drawn) | inconclusive [inhibitor, single point] | 
Cc1ccc(CC2CC(=O)N(Cc3ccco3)C2=O)cc1 (stereo not drawn) |  | inconclusive: -37.1% [inhibitor]
COc1cc(NC(=O)C2CCCC2)c(OC)cc1Cl | inconclusive [inhibitor, partial curve] | 
COc1cccc(/C=C/C(=O)N(C)CC(=O)Nc2ccc(Cl)c(C(F)(F)F)c2)c1 | inconclusive [inhibitor, partial curve] | 
Cc1nn(-c2ccccn2)c2c1-c1nc(N)sc1CC2 | active: 17.8 µM | 
CN(Cc1ccccc1)C(=O)c1ccc(NC(=O)Cc2ccc(NC(=O)C3CCCN(S(=O)(=O)c4cccc([N+](=O)[O-])c4)C3)cc2)cc1 (stereo not drawn) | inconclusive [inhibitor, single point] | 
Cc1ccc(CNC(=O)[C@@H]2CCC(=O)N2Cc2ccco2)cc1 |  | inactive: -4.87%
Cc1ccc(NC(=O)Nc2cccnc2)cc1NC(=O)Nc1cccnc1 | active: 9.2 µM | 
CCc1ccc(-n2c(C)nnc2SCc2nc(-c3ccc(OC)cc3)no2)cc1 |  | inconclusive: -30.4% [inhibitor]
Cc1ccc(O)c(-c2cc(C(=O)Nc3ccc(S(=O)(=O)Nc4nc(C)cc(C)n4)cc3)[nH]n2)c1 |  | inactive: -26.3%
CCC(C(=O)Nc1cccc(-c2cn3cccnc3n2)c1)c1ccccc1 (stereo not drawn) | inconclusive [inhibitor, single point] | 
COc1cccc(N2CCN(C(=O)c3ccc(CSc4nc5ccncc5[nH]4)cc3)CC2)c1 | active: 18.4 µM | 
CCn1c(SCc2ccccc2)nc2cc(S(N)(=O)=O)ccc21 | inconclusive [inhibitor, single point] | 
Cc1cccc(-c2nnc(-c3ccccc3)o2)c1 | inconclusive [inhibitor, single point] | 
Cc1cc(C)c(/C=C(\C#N)C(N)=S)c(C)c1 |  | inactive: -26.1%
CCC1CN(C(=O)N2CCC(C(=O)NCCc3ccc(OC)cc3OC)CC2)c2ccccc2O1 (stereo not drawn) | inconclusive [inhibitor, full curve, poor fit] | 
Cc1ccc(NCC(=O)N/N=C/c2ccc(-c3cccc(C(F)(F)F)c3)o2)cc1 | inconclusive [inhibitor, single point] | 
O=[N+]([O-])c1ccc(N=NNc2ccc([N+](=O)[O-])cc2)cc1 | inconclusive [inhibitor, partial curve, poor fit] | 

Structure (SMILES) | Potency | activity change, negative = growth inhibition
Cc1ccc(-c2c[n+](Cc3cccc(Cl)c3)c3n2CCC3)cc1 | active: 0.517 µM | 
O=C1NC(=Nc2ccccc2)S/C1=C\c1ccccc1 | inconclusive [inhibitor, single point] | 
Cc1csc(NC(=O)c2oc3ccccc3c2C)n1 | inconclusive [inhibitor, partial curve, poor fit] | 
Cc1cc(C(=O)NCC2CCCCC2)ccc1[N+](=O)[O-] |  | inactive: -27.3%
Cc1ccccc1NP(=O)(c1ccccc1)c1nc2ccccc2s1 (stereo not drawn) | inconclusive [inhibitor, single point] | 
Cc1cc(S(=O)(=O)NC2CC(C)(C)NC(C)(C)C2)c(Cl)cc1Cl | inconclusive [inhibitor, single point] | 
COCCNC(=O)CN1C(=O)NC2(CCCCCC2)C1=O |  | inactive: 4.99%
CCC(Oc1ccccc1F)C(=O)Nc1c(C(=O)c2ccccc2)oc2ccccc12 (stereo not drawn) | inconclusive [inhibitor, single point] | 
COc1ccc(CN(C)C(=O)CCNS(=O)(=O)c2ccccc2)c(OC)c1 |  | inactive: -30.6%
COc1ccc(CCNC(=O)NCc2noc3ccccc23)c(OC)c1 | active: 20.6 µM | 
CN(C)c1ccc(C(CNS(=O)(=O)c2ccc(Cl)cc2)N2CCCC2)cc1 (stereo not drawn) | inconclusive [inhibitor, single point] | 
CCCCCc1ccc(OCCC[n+]2ccccc2)c(CCCCC)c1 | active: 1.03 µM | 
Cc1cc2c(ncn2Cc2ccccc2)c([N+](=O)[O-])c1C | inconclusive [inhibitor, single point] | 
CC(C)NCC(O)c1ccc(NS(C)(=O)=O)cc1 (stereo not drawn) | inconclusive [inhibitor, single point] | 
O=C(c1ccccc1)N1CCn2c1nc1ccccc12 |  | inactive: -4.29%
O=S(=O)(c1ccc(F)cc1F)N1CCCN(c2ccc(C(F)(F)F)cn2)CC1 | inconclusive [inhibitor, single point] | 
COc1cccc(-c2nnc3n(Cc4ccc(F)cc4)c(=O)c4ccccc4n23)c1 | inconclusive [inhibitor, single point] | 
O=C(Oc1ccccc1)N1CCC2(CC1)CCN(c1ccncc1)CC2 | active: 14.6 µM | 
C[n+]1cccc(C2C(C#N)=C(N)Oc3c2ccc2ccccc32)c1 (stereo not drawn) | inconclusive [inhibitor, single point] | 
O=C(Nc1ccccn1)c1ccc(Cl)c(S(=O)(=O)N2CCOCC2)c1 |  | inactive: 21.6%
CC(C)CN(C(=O)CSc1nc2ccccc2o1)c1c(N)n(Cc2ccccc2)c(=O)[nH]c1=O | active: 20.6 µM | 
COCCNC(=O)C1CCCN(C(=O)c2ccc3c(c2)C(C)(C)CCC3(C)C)CC1 (stereo not drawn) | inconclusive [inhibitor, single point] | 
CC(=O)c1ccc(N2CCN(C(=O)Cn3cnc(S(=O)(=O)N4CCCCC4)c3)CC2)cc1 |  | inactive: -9.05%
